The values below come from ChEMBL document CHEMBL1156829.

Whole data set: some 5,400 compounds, median “IFI” near 2, cut for the highest 2% near 22. The list shows a part of the results.

A short description of the assay: NOVARTIS: Inhibition Frequency Index (IFI) - the number of HTS assays where a compound showed > 50% inhibition/induction, expressed as a percentage of the number of assays in which the compound was tested. Format: functional.
`O=C(NCCN1CCCCC1)c1ccc(OC2CCN(CC3CCCCC3)CC2)c(Cl)c1` had an IFI of 8.57%.

`COC(F)(C(=O)Nc1c(C)n(C)n(-c2ccccc2)c1=O)C(F)(F)F` (stereo unspecified) displayed an IFI of 0%.

`COC(=O)c1cccc(NC(=O)/C(=C\c2cccc([N+](=O)[O-])c2)NC(=O)c2ccccc2OC)c1` showed an IFI of 0%.

`CCOc1ccc2nc(C)cc(Nc3ccc(C)c(Cl)c3)c2c1` yielded an IFI of 7.84%.

Consider `COc1ccc(C2Nc3ccc4ccccc4c3C3=C2C(=O)CC(C)(C)C3)cc1Br` (stereo unspecified), for which the IFI is 0%.

The compound `Cc1ccc(C2CC(C(F)(F)F)n3ncc(C(=O)Nc4ccc(OC(F)(F)F)cc4)c3N2)cc1` (stereo unspecified) came in with an IFI of 0%.

Regarding `Nc1ccc(-c2nc3ccc(-c4nc5ccc(N)cc5[nH]4)cc3[nH]2)cc1`, the IFI was determined as 2.56%.

`COc1ccc(NC(=O)CN2CCN(S(=O)(=O)c3cccc([N+](=O)[O-])c3)CC2)c(OC)c1` displayed an IFI of 0%.

Regarding `CCCN(CCC)CCCNc1ccc(C(=O)Nc2cccc(OC)c2)cc1[N+](=O)[O-]`, the IFI is 0%.

Compound `CCOc1ccc(NC(=O)N(CCC(C)C)C(C)c2nc3ccccc3c(=O)n2-c2cccc(Cl)c2C)cc1` (stereo unspecified) came in with an IFI of 1.06%.

On to `c1ccc2[nH]c(Sc3ncnc4sc5c(c34)CCC5)nc2c1`, for which the IFI was found to be 1.51%.

The compound `COC(=O)[C@@H]1C[C@H](NC(=O)c2ccc(OC)cc2OC)CN1Cc1cccc2ccccc12` showed an IFI of 1.85%.

With `CCCOC(=O)C1=C(C)NC2=C(C(=O)CC(c3ccccc3)C2)C1c1ccc(Cl)cc1Cl` (stereo unspecified), the IFI came to 3.66%.

In the case of `OC(CN1CCN(CC(O)Cn2c3ccccc3c3cc(Br)ccc32)CC1)Cn1c2ccccc2c2ccccc21` (stereo unspecified), the IFI stood at 7.14%.

For `CCOC(=O)N1CCC(N2C(=O)c3ccccc3C2Nc2ccc(OCC)cc2)CC1` (stereo unspecified), the IFI is 0%.

`COc1cc2c(cc1OC)C1=NNC(=O)C1=NC(C)(C)C2` displayed an IFI of 7.14%.

As to `CCOC(=O)C1=C(CC)NC2=C(C(=O)CCC2)C1c1ccc(OC)c(Br)c1` (stereo unspecified), the IFI worked out at 3.49%.

On to `CC(C)(C)C1=CC(=C2C=C(C(C)(C)C)SC(C(C)(C)C)=C2)C=C(C(C)(C)C)S1`, for which the IFI stood at 3.66%.

On to `Cc1ccccc1Cn1cc(NC(=O)c2cc(-c3cccs3)on2)cn1`, for which the IFI turned out to be 0%.

As to `FC(F)(F)c1cnc(Sc2nnc(-c3ccncc3)o2)c(Cl)c1`, the IFI was found to be 10%.

`COc1ccc2[nH]c(SCC(=O)Nc3cccc(NC(=O)CSc4nc5cc(OC)ccc5[nH]4)n3)nc2c1`: the IFI was determined as 13.1%.

In turn, `Cc1ccc(C(OCC(C)(C)C[N+](C)(C)C)c2ccccc2)cc1` (stereo unspecified) had an IFI of 2.22%.

Take `CCOC(=O)c1[nH]c2ccc(OC)cc2c1N=NN(C)C`: the IFI amounted to 6.3%.

The compound `COCCNC(=O)[C@@H]1C[C@@H](Sc2nc3ccccc3[nH]2)CN1Cc1ccc2ccccc2c1` gave an IFI of 8.82%.

Consider `CC1=C(C(=O)Nc2ccc(C)cc2C)C(c2cc(Br)ccc2F)n2ncc(C(=O)Nc3ccc(C)cc3)c2N1` (stereo unspecified), for which the IFI amounted to 0%.

In the case of `COC(=O)C1=C(C)NC2=C(C(=O)CC(c3ccccc3)C2)C1c1ccc(Cl)cc1` (stereo unspecified), the IFI stood at 2.3%.

Turning to `CCC(C(=O)Oc1ccccc1-c1nc2cc(C)ccn2c1NC(C)(C)CC(C)(C)C)c1ccccc1` (stereo unspecified), the IFI worked out at 3.74%.

Turning to `O=C(NNS(=O)(=O)c1ccccc1[N+](=O)[O-])c1ccccc1`, the IFI is 0%.

For the compound `C/C=C/c1n(C)c2ccccc2[n+]1C`, the IFI came to 4.35%.

Turning to `COC(OC)C(C)=NNC(N)=S`, the IFI came to 16.8%.

`Cc1noc(C)c1S(=O)(=O)N(Cc1ccccc1)CC(O)CN1CCC(NC(=O)c2ccc(F)cc2)C1` (stereo unspecified): the IFI was found to be 0.971%.

`CCC(CC)CN1CCC(O)(c2ccc3oc(C(=O)Nc4ccc(OC)c(OC)c4)cc3c2)CC1` registered an IFI of 3.45%.

Take `CCCCC(CC)C(=O)N1CCN(C(C)c2nc3ccc(Cl)cc3c(=O)n2C)CC1` (stereo unspecified): the IFI is 0%.

For the compound `COc1ccccc1N1CCN([C@@H]2CCN(Cc3cccnc3)C[C@@H]2CCC(=O)N2CCCC2)CC1`, the IFI came out at 2.68%.

As to `Cc1cccc(CSc2nnc(C(Cc3ccccc3)NC(=O)C3CCCCC3)n2-c2ccc(Cl)cc2Cl)c1` (stereo unspecified), the IFI was found to be 1.07%.

For `CC(C)(C)NCC(O)Cn1c2ccc(I)cc2c2cc(I)ccc21` (stereo unspecified), the IFI turned out to be 4.05%.

Regarding `COc1ccc(NC(=O)C2=C(C)NC(=S)NC2c2ccc(O)cc2)cc1` (stereo unspecified), the IFI was found to be 0%.

`O=C(CCn1c(=O)[nH]c2ccccc21)NCC1Cc2cccc(-c3ccncc3)c2O1` (stereo unspecified) registered an IFI of 0%.

Compound `COc1ccc(CN2CCOc3ccc(C(C)(O)CN(C)C)cc3C2)cc1C` (stereo unspecified) yielded an IFI of 0%.

Compound `COc1ccc(C2CC(=O)C3=C(C2)NC(=O)CC3c2ccc(C(F)(F)F)cc2)cc1OC` (stereo unspecified) displayed an IFI of 0%.

With `COc1cccc(Nc2nc(NCCO)c3ccccc3n2)c1`, the IFI came to 1.47%.

In turn, `CCCCCCN(C(=O)c1ccccc1)C(CC)c1nc2ccccc2c(=O)n1-c1ccccc1OC` (stereo unspecified) displayed an IFI of 1.03%.

Consider `COc1cc(NC(C)CCCN(Cc2ccccc2OC)S(=O)(=O)c2ccc(Br)cc2)c2ncccc2c1` (stereo unspecified), for which the IFI stood at 4.25%.

Compound `COc1cc2ccccc2cc1C(=O)NCCOC12CC3CC(CC(C3)C1)C2` had an IFI of 2.15%.

In turn, `CN(CCCNc1ccnc2cc(Cl)ccc12)C(=O)c1ccccc1` returned an IFI of 1.87%.

Compound `CCc1[nH]nc2c1C(Cc1ccccc1)C(C#N)=C(N)O2` (stereo unspecified) displayed an IFI of 1.54%.

The compound `COc1cc(/C=C/c2nc(O)nc(O)c2[N+](=O)[O-])cc(Br)c1O` had an IFI of 7.69%.

Turning to `COc1ccc(OC)c(-c2ccc(O)c(CNCC3CCCCC3)c2)c1`, the IFI stood at 5.88%.

As for `OC(CN1CCN(Cc2ccccc2)CC1)Cn1c2ccc(Cl)cc2c2cc(Cl)ccc21` (stereo unspecified), the IFI turned out to be 1.15%.

In turn, `COC(=O)c1ccc(C2C3=C(O)CC(c4cccs4)CC3=Nc3ccccc3N2C(=O)c2ccccc2)cc1` (stereo unspecified) yielded an IFI of 2.5%.

As to `C[n+]1ccccc1/C=C/C1=C(c2ccccc2)Oc2ccccc2O1`, the IFI came out at 11.1%.

`Fc1ccc(-c2cn3c([n+]2-c2ccccc2)SCC3)cc1` registered an IFI of 1.04%.

Compound `CC(C)CNC(=O)c1cnc(NCCCN2CCCC2)nc1NC1CCCC1` yielded an IFI of 1.91%.

Consider `CCCOC(=O)C1=C(C)NC2=C(C(=O)CC(c3ccc(OC)cc3)C2)C1c1ccc(Cl)cc1Cl` (stereo unspecified), for which the IFI was determined as 2.35%.

On to `COc1ccc(CNCCN2CCN(c3ccc(C)cc3)C[C@@H]2c2ccccc2)cc1`, for which the IFI was determined as 3.75%.

`OC(Cn1cnc(-c2ccccc2)c1-c1ccccc1)Cn1c2ccc(Cl)cc2c2cc(Cl)ccc21` (stereo unspecified) yielded an IFI of 2.33%.

On to `CC(=O)Nc1nc(C)c(-c2csc(Nc3ccc(Br)cc3)n2)s1`, for which the IFI was 4.81%.

On to `Cc1noc(C)c1S(=O)(=O)N(Cc1ccccc1)CC(O)CN1CCC(NC(=O)c2cccc3ccccc23)C1` (stereo unspecified), for which the IFI was determined as 2.91%.

With `O=C(O)C1Cc2c([nH]c3ccccc23)C(c2ccc(Cl)cc2Cl)N1` (stereo unspecified), the IFI amounted to 0%.

`CC(C)CNC(=O)c1cc(NC(=O)c2cccs2)ccc1N1CCc2ccccc2C1` yielded an IFI of 1.09%.

As to `Cc1c(C(=O)N2CCN(c3ccc([N+](=O)[O-])cc3)CC2)sc2ncnc(N(C)c3ccccc3)c12`, the IFI turned out to be 1.16%.

Take `O=C(Nc1ccc(C(=O)Nc2cccc(C3=NCCN3)c2)cc1)c1ccc(C2=NCCN2)cc1`: the IFI is 0.87%.

Consider `CC1CC(=O)NN=C1c1ccc(NC(=O)c2ccccc2)cc1` (stereo unspecified), for which the IFI came out at 14.3%.

The compound `N#Cc1cc(Oc2ccc(-c3cnc4ccccc4n3)cc2)nc2ccccc12` had an IFI of 0%.

For `CCCC(=O)N(CCCC(C)Nc1cc(OC)cc2cccnc12)Cc1ccc(F)cc1` (stereo unspecified), the IFI turned out to be 1.94%.

`CC1=C(C(=O)OC(C)C)C(c2ccccc2F)C2=C(CC(c3ccc(Cl)cc3)CC2=O)N1` (stereo unspecified) gave an IFI of 2.22%.

`Cc1ccc2c(c1)C1CN(C)CCC1N2C(=O)c1cc2ccccc2o1` (stereo unspecified) gave an IFI of 0%.

Compound `C=CCn1c(=N)n(CC(O)c2ccc(Cl)c(Cl)c2)c2ccccc21` (stereo unspecified) returned an IFI of 9.52%.

`CC(C)CC(N)C(=O)N1CCc2nc(Cc3ccc(F)cc3Cl)sc2C1` (stereo unspecified) yielded an IFI of 4.22%.

As for `c1ccc(Cn2c(N=NNc3nc4ccccc4n3Cc3ccccc3)nc3ccccc32)cc1`, the IFI came out at 6.03%.

The compound `Cc1cc(C)nc(SCc2cc(=O)c(OC(=O)c3ccccc3Br)co2)n1` had an IFI of 0%.

In turn, `CCCCCCCCCC(=O)N1CCN(C(CC)c2nc3ccccc3c(=O)n2C)CC1` (stereo unspecified) had an IFI of 4.63%.

Consider `Cn1c(=NC(=O)c2ccc(S(=O)(=O)N3CCCCC3)cc2)sc2cc(Cl)ccc21`, for which the IFI amounted to 0%.

Turning to `Nc1ccc(C(=O)Nc2ccc(-c3nc4ccccc4o3)cc2)cc1`, the IFI stood at 7.69%.

For the compound `Cc1ccc(C2Sc3ccccc3NC3=C2C(=O)c2ccccc23)cc1` (stereo unspecified), the IFI came to 2.17%.

Regarding `CCC(=O)NC(c1cccc([N+](=O)[O-])c1)c1ccc2cccnc2c1O` (stereo unspecified), the IFI was 0%.

Turning to `CC[n+]1c(C=CN(C)c2ccccc2)sc2ccc(Cl)cc21`, the IFI worked out at 9.09%.

The compound `CCC(c1nc2ccccc2c(=O)n1-c1ccccc1OC)N(CCc1ccccc1)C(=O)c1cccc(C(F)(F)F)c1` (stereo unspecified) came in with an IFI of 3.26%.

`CCC(C(=O)NCCCCNc1ccnc2cc(Cl)ccc12)c1ccccc1` (stereo unspecified) returned an IFI of 6.6%.

As for `COc1ccc(C2CC(c3ccccc3Cl)n3ncnc3N2C(=O)C2CC2)cc1` (stereo unspecified), the IFI was 0%.

For `O=c1c2c([nH]c3ccccc13)CCCCCCCCCC2`, the IFI came to 2.94%.

In the case of `CCOc1cc2c(cc1OCC)C(c1cc(Cl)ccc1O)NCC2` (stereo unspecified), the IFI is 0%.

`CCOC(=O)C1CCN(C(=O)C(=O)Nc2ccc3nc4n(c(=O)c3c2)CCCCC4)CC1` gave an IFI of 0%.

`CC(C)N(C(=O)Cn1ccc(=N)c2ccccc21)C(C)C`: the IFI was 0%.

In turn, `Cc1ccc(C)c2[nH]c(=O)c(CN(Cc3ccccc3)C(=S)NCCCN(C)C)cc12` gave an IFI of 6.19%.

Turning to `CCOC(=O)c1c[nH]c2ccc(C)cc2c1=O`, the IFI amounted to 0%.

`COc1ccc(-n2nc(C(=O)NCc3ccccc3OC)c3ccccc3c2=O)cc1` displayed an IFI of 3.61%.

Compound `C(=Nc1cnc2ccccc2c1)c1c2n(c3ccccc13)CCCN2` returned an IFI of 0%.

The compound `CCCN(C(=O)C(=O)Nc1ccc2nc3n(c(=O)c2c1)CCCCC3)c1ccc(OCC)cc1` displayed an IFI of 0%.

`Cc1ccc2c(nc3sc(=Cc4ccc(-c5ccccc5F)o4)c(=O)n32)c1C`: the IFI stood at 3.57%.

Turning to `CN(Cc1ccccc1)c1cc(-c2ccccn2)nc(-c2ccccn2)n1`, the IFI worked out at 7.69%.

Compound `Cc1n(C)c2ccccc2[n+]1CC(=O)c1ccccc1` had an IFI of 0%.

For `Oc1ccc(-c2ccc(F)cc2)cc1CNC1CCCCC1`, the IFI amounted to 1.74%.

Consider `COc1cccc(C(=O)Oc2ccccc2-c2nc3cc(C)ccn3c2NC(C)(C)CC(C)(C)C)c1`, for which the IFI is 3.74%.

`CC(C)(C)c1cc(CCC(=O)Nc2c3c(nc4ccccc24)N(c2cccc(Cl)c2)CC3)cc(C(C)(C)C)c1O`: the IFI came to 4.54%.

In turn, `COC(=O)C1=CN(Cc2ccc(Cl)cc2)C=C(C(=O)OC)C1c1ccc(Cl)c(Cl)c1` displayed an IFI of 3.53%.
